Source: article PMC6919601, “Identification of Plasmodium dipeptidyl aminopeptidase allosteric inhibitors by high throughput screening” (PLoS ONE, 2019)
Screen size: about 110,000 compounds; about 230 (0.21%) showed an effect of 50% or more. The list shows a part of the results.

Each compound was assayed against DPAP1 (Plasmodium falciparum, UniProt Q8IIJ9) (assay: primary screen, percent inhibition; read by cleavage of a fluorogenic dipeptide substrate; higher = more effect of the substance).
Set-up: species or system P. falciparum D10 trophozoite lysates; single well
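Further: 30 min substrate incubation versus DMSO and 10 µM JCP410 controls.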

DPAP1, sequence (Q8IIJ9 whole entry, looked up): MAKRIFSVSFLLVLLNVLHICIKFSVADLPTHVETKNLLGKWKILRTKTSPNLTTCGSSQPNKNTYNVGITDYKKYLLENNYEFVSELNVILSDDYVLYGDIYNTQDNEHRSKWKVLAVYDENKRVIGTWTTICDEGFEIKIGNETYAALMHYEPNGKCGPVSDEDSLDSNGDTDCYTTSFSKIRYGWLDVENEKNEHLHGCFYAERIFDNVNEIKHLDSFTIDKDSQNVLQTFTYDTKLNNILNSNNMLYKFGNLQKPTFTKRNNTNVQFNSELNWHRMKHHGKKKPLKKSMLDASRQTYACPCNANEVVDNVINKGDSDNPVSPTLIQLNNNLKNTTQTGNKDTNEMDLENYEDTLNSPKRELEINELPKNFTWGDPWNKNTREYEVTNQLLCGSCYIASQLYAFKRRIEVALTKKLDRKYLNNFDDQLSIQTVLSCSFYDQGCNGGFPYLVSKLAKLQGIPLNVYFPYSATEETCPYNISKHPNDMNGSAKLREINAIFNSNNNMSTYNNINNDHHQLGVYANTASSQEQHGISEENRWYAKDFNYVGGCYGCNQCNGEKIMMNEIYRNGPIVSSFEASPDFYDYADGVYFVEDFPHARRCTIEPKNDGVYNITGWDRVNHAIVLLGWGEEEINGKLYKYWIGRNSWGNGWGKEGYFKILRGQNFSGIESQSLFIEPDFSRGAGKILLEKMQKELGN

Structure (SMILES) | % Inhibition @ 10 uM [%]
CC(C)c1ccc(CN(C(=O)COc2ccccc2Cl)C2CCS(=O)(=O)C2)cc1 (stereo not drawn) | 0.413
O=C(NCc1ccco1)c1c2c(nc3ccccc13)C(=O)N(C1CCCCC1)C2 | -7.5
CCCn1c(NCc2ccc(C)o2)nc2ccccc21 | 1.64
Fc1ccc(N2CCN(Cc3ccc(Br)cc3)CC2)cc1 | 4.67
O=c1c2c3c(sc2nc2c4ccccc4c(N4CCOCC4)nn12)CCCCC3 | 4.49
CCCCN(C)CCCNC(=O)C1CCN(C(=O)c2cc3sccc3n2C)CC1 | -3.35
COc1ccc(C(=O)Nc2cc3ccc(O)cc3oc2=O)cc1 | 1.72
CCOC(=O)Nc1noc2ccccc12 | -6.5
CCOC(=O)C1=C(C)OC(N)=C(C#N)C1c1c(C)cc(C)cc1C (stereo not drawn) | 4.98
O=C(O)c1ccc(N2C(=O)c3ccccc3C2=O)cc1O | 1.96
CC1CCN(C(=O)c2cc(-c3ccccc3O)on2)CC1 | -4.43
COc1ccc(-c2nn(C)c3sc(C(=O)NCc4ccc5c(c4)OCO5)cc23)cc1OC | -2.29
CCCOc1ccc(C2CC(=O)NC3=C2C(=O)CCC3)cc1 (stereo not drawn) | 0.559
Cc1ccccc1-c1nc2cc(NC(=O)c3cccc4ccccc34)ccc2o1 | -4.21
COc1ccc(CNS(=O)(=O)c2ccc(Cl)s2)cc1 | -1.96
CC(NC(=O)CN(C)S(=O)(=O)c1ccc(Br)s1)c1ccccc1 (stereo not drawn) | 4.07
COc1ccc(Oc2nc3c(c(=O)n(C)c(=O)n3C)n2C)cc1 | 3.86
Cc1nn(Cc2ccccc2Cl)c(C)c1NC(=O)c1cc(-c2ccc(O)cc2)on1 | 7.44
COc1cccc(COC(=O)c2ccc(-n3nnnc3Cc3cccc(OC)c3)cc2)c1 | 2.77
N#Cc1c(N)nc2c(c1-c1ccco1)CCCC2 | -3.58
CCOC(=O)C1=CN(Cc2ccc(F)cc2)C=C(C(=O)OCC)C1c1ccc(O)c(OCC)c1 | 0.219
O=C(NCc1ccccc1Cl)C1C2C=CC3(CN(Cc4ccccc4Cl)C(=O)C13)O2 (stereo not drawn) | 4.06
CNC(=O)Cn1cc(S(=O)(=O)Cc2ccccc2Cl)c2ccccc21 | -6.36
CCCCOCC(O)Cn1c(C)nc2ccccc21 (stereo not drawn) | -3.39
O=C1CC(c2ccccc2)CC(=O)C1=CNc1cccc2ccccc12 (stereo not drawn) | 2.38
Clc1ccccc1C1CC(c2ccco2)n2ncnc2N1 (stereo not drawn) | -2.67

Structure (SMILES) | % Inhibition @ 10 uM [%]
CCN1CCCC1CNC(=O)C1CCCN(S(=O)(=O)c2cccc3nsnc23)C1 (stereo not drawn) | -2.29
COCCn1c(CCC(=O)NCc2ccc(OC)cc2)nc2cccnc21 | 2.57
CC(C)CNC(=O)c1ccc2snnc2c1 | -0.0235
CNc1oc(/C=C/c2cccs2)nc1C#N | 0.00706
Cc1onc(-c2ccccc2Cl)c1C(=O)Nc1ccc(Cl)cc1 | -0.351
CCN1CCN(Cc2ccc(OC)c(C)c2C)CC1 | 6.33
O=C(NCc1ccco1)c1cnc2ccccn2c1=O | -1.66
COc1cc(/C=c2\sc3nc(-c4ccccc4C)nn3c2=O)cc(OC)c1OC | -3.21
Cc1nn(CCCC(=O)NCc2cccnc2)c(=O)c2cc3sccc3n12 | 3.2
Fc1ccc(-c2ccc(-c3nn4c(-c5ccccc5)nnc4s3)o2)cc1 | -1.69
NC(=O)COc1cc(=O)oc2ccc([N+](=O)[O-])cc12 | -3.58
COC(=O)C1=C(C)N=C(C)/C(=C(/O)OC)C1c1ccc(O)cc1 (stereo not drawn) | -0.436
CCn1cc(C(=O)N2CC3CC(C2)c2cccc(=O)n2C3)c(=O)c2ccc(C)nc21 (stereo not drawn) | -4.99
CN(C)CCN(C)Cc1ccc(N(C)C)cc1 | 2.94
O=S(=O)(c1ccc(Cl)cc1)N1CCN(Cc2ccccc2)CC1 | 4.54
COc1ccc(-c2nc(N)sc2C)cc1 | 2.46
CCCCc1nnc2sc(NC(=O)CCC)nn12 | -4.69
CN(C)c1ccc(NC(=O)c2scc3c2CCCC3)cc1 | -5.27
O=C(CN1C(=O)c2cccc3cccc(c23)C1=O)Nc1c(Cl)cccc1Cl | -3.84
CCCCNC(=O)CSCc1nc(-c2ccc(C)cc2)oc1C | -1.27
CCOC(=O)c1sc(NC(=O)C(CC)Sc2nnc3c(n2)[nH]c2ccccc23)nc1C (stereo not drawn) | 0.408
Cc1nc(C23CC4CC(CC(C4)C2)C3)c[nH]1 | -5.62
NC1=NC(Cl)=NC2C1N=CN2Cc1ccccc1 (stereo not drawn) | 1.67
Nc1ccc(S(=O)(=O)Nc2nccc(/C=C/c3cccc(F)c3)n2)cc1 | 0.889
COc1cccc2c1cc1c(=O)n(CC(=O)NC3CCN(Cc4ccccc4)CC3)nc(C)n12 | -1.7
COc1ccccc1CNC1CCSC1 (stereo not drawn) | 5.03

Structure (SMILES) | % Inhibition @ 10 uM [%]
COc1ccccc1NS(=O)(=O)c1ccc(Oc2ccccc2C)cc1 | -1.17
CCOc1cccc(C(=O)Nc2cccc(-c3nc4ncccc4o3)c2)c1 | 8.59
Nc1nc2nc(-c3ccccc3)cc(O)n2n1 | -0.13
Cc1nn(-c2ccccc2)c(Cl)c1C1CC(=O)Nc2c1ccc1ccccc21 (stereo not drawn) | -6.35
CC(C)(C)NCc1cc(Br)ccc1OCc1cccs1 | 2.06
Cn1c(SCc2nc(-c3ccc(Cl)cc3)no2)nc2ccccc21 | -2.63
N#Cc1ccccc1CN1C(=O)S/C(=C/c2ccc(O)cc2)C1=O | 10.2
O=C(OC1CCCCC1)C(C(=O)OC1CCCCC1)c1nc2ccccc2s1 | -0.0813
OC[C@H]1O[C@@H](Nc2ccccc2)[C@@H](O)[C@@H](O)[C@@H]1O | 0.565
O=C(NC(=O)c1ccc(C(F)(F)F)cc1)OCCN1C(=O)c2ccccc2C1=O | -2.63
COc1ccc(OCCSCc2nnc(NC(=O)C(=O)c3c[nH]c4ccccc34)s2)cc1 | 2.11
CCc1ccccc1NC(=O)CN(c1ccc(C)c(C)c1)S(C)(=O)=O | 0.189
Oc1ccc(CN2CCOCC2)cc1 | -0.603
Cc1ccc(NC(=O)COc2cccc(C3C4=C(O)CCCC4=NC4=C3C(=O)CCC4)c2)cc1Cl (stereo not drawn) | 4.7
COc1cc(-c2noc(CCC(=O)NCc3ccco3)n2)cc(OC)c1OC | 3.62
O=C(Cc1c(C(=O)O)[nH]c2ccccc12)NCCN1CCOCC1 | 2.83
COCCNC(=O)c1cc2cc3ccc(C)cc3nc2s1 | 0.675
Cc1ccc(S(=O)(=O)c2ccc(Cl)cc2)cc1 | -6.68
CN(C(=O)Cn1c(SCc2ccccc2F)nc2ccncc21)C1CCCCC1 | 2.65
COc1cccc(C2NC(=O)NC(C)=C2C(=O)Nc2ccccc2OC)c1 (stereo not drawn) | -7.1
O=C(CCN1C(=O)c2ccccc2C1=O)Nc1ccc(Cl)cc1 | -5.62
CCC(C#CCN1CCCCC1)(CC)OC(C)=O | 5.68
CCOC(=O)N1CCN(C(=O)c2sc3ncnc(N4CCN(c5ccccn5)CC4)c3c2C)CC1 | 0.685
COc1cccc2c1OC13CCCC1C2/C(=C(O)\C=C\c1ccc(OC)c(OC)c1OC)C(=O)N3C (stereo not drawn) | 1.16
Cc1ccc2cccc(O)c2n1 | 5.01
Cn1c(=O)c2c(nc(Oc3ccc4c(c3)OCO4)n2Cc2ccccc2)n(C)c1=O | -3.87

Structure (SMILES) | % Inhibition @ 10 uM [%]
CC1CCN(S(=O)(=O)N2CCC(C(=O)NCCc3ccc(Cl)cc3)CC2)CC1 | -1.34
CCCC(=O)Nc1ccc(S(=O)(=O)Nc2ccc(C)c(C)c2)cc1 | 1.05
NC1=NC(c2ccc(OCC(=O)O)cc2)n2c(nc3ccccc32)N1 (stereo not drawn) | -3.53
Cc1c(C(=O)N(Cc2cccs2)C2CCS(=O)(=O)C2)oc2ccccc12 (stereo not drawn) | 0.413
COC(=O)C1=C(C)NC(=O)NC1c1ccc(O)cc1 (stereo not drawn) | 5.5
Cc1ccc(C(C)C)c(OCC(=O)NCc2ccco2)c1 | -8.3
CCc1nn(CC(=O)NCCCN(Cc2ccccc2)C(C)C)c(=O)c2cc3sccc3n12 | -1.58
CCC(C)c1ccccc1OCC(=O)Nc1ccc(C)cc1C(=O)O (stereo not drawn) | -1.65
Cc1ccc(C(=O)NCc2ccco2)cc1S(=O)(=O)N1CCOCC1 | -6.37
Cc1cccc(NC(=O)/C=C/c2ccc3c(c2)OCO3)c1 | 2.94
Cc1ccsc1CN1CCN(CCOCCO)CC1 | 1.87
Cc1nn(-c2ccc(Cl)nn2)c(=O)c2ccccc12 | -11.3
COc1ccc(C(=O)c2c[nH]cn2)cc1OC | 4.61
Cc1sc(NC(=O)c2ccccc2F)c(CN2CCCCC2)c1C | -2.85
CCOC(=O)C1=CN(Cc2ccc(OC)cc2)C=C(C(=O)OCC)C1c1ccc(C(F)(F)F)cc1 | 1.86
CC(C)(C)c1[nH]nc2c1C(c1ccccc1F)C(C#N)=C(N)O2 (stereo not drawn) | 1.37
Cc1ccc(NS(=O)(=O)c2ccc(NC(=O)c3ccccc3C(=O)O)cc2)c(C)c1 | 4.11
Cc1ccc(-c2nn(Cc3cc(=O)n4ccccc4n3)c(=O)c3c2CCCC3)cc1 | -0.946
O=C1C2C3C=CC(CO)(O3)C2C(=O)N1c1cc(C(F)(F)F)ccc1Cl (stereo not drawn) | 4.78
CC(C(=O)Nc1ccc(Cl)cn1)N1Cc2ccccc2C1=O (stereo not drawn) | 4.6
CC(C)Cn1cnc2oc(-c3ccccc3)c(-c3ccccc3)c2c1=N | -1.6
Oc1nc(S)nc(O)c1C(c1ccc(F)cc1)N1CCCCC1 (stereo not drawn) | -3.41
Cc1cccc(Cn2nc(Cc3cccnc3)c3ccccc3c2=O)c1 | 1.39
C/C(=C\c1ccccc1)CN1CCCCC1CO (stereo not drawn) | -2.95
